Laboratory results published in PMC4336329 (PLoS ONE, 2015).
Out of some 310,000 compounds screened, about 14,000 (4.5%) showed an effect of 50% or more. Effects have a minus sign here. The list shows a part of the results.

The compounds below were run against human ether-à-go-go-related gene (hERG) potassium channel (human, UniProt Q12809) (assay: primary screen, population patch clamp on CHO cells stably expressing hERG).
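Also: peak tail current of the secondary pulse compared with the same well before compound.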

Chain of human ether-à-go-go-related gene (hERG) potassium channel (Q12809 whole entry, looked up): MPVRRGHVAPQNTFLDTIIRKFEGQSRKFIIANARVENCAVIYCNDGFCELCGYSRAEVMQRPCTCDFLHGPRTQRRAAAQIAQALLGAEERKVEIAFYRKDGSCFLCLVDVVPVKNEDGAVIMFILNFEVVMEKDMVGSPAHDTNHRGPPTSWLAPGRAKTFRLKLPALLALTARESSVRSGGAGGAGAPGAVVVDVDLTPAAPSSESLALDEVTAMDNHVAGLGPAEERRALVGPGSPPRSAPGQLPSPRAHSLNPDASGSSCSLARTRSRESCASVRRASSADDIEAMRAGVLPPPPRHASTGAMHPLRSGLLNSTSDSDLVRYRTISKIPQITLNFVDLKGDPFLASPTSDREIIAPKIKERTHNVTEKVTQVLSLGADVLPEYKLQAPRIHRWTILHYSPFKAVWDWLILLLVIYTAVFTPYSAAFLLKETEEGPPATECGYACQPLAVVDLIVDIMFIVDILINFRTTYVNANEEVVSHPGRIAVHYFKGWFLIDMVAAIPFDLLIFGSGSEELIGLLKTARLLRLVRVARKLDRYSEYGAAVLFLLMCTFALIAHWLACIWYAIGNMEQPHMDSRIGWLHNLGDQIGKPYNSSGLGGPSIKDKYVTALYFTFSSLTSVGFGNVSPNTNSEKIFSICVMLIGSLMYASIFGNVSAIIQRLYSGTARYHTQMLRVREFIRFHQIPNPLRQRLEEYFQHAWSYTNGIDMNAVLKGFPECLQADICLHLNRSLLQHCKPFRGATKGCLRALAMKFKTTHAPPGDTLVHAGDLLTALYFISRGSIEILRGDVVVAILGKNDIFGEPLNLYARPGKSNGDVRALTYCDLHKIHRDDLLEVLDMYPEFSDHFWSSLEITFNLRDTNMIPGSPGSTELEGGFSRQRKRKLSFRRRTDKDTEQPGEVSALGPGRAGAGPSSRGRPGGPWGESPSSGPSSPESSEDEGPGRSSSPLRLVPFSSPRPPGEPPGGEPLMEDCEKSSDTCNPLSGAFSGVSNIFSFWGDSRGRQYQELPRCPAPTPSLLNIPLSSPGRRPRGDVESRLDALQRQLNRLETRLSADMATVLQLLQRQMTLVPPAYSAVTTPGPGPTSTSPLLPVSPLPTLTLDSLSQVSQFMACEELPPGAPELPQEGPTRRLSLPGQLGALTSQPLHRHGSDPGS

Compound	hERG current change (%, negative = inhibition) at 10uM
COc1cccc([C@@H]2CC=C(C(=O)O)CN2S(=O)(=O)c2ccc(C)cc2)c1	16%
COc1ccc(CNC(=O)C2(CC3CC(c4ccccc4)=NO3)CCN(C(=O)OC(C)(C)C)CC2)cc1 (stereo not drawn)	-30.5%
CN(C)S(=O)(=O)c1ccc(Cl)c(NC(=O)CSc2nc3ccccc3c(=O)n2CCCN2CCOCC2)c1	-73.9%
O=C(Nc1ccc2ccccc2c1)c1cnccn1	5.67%
COc1ccc(C2C(C#N)=C(N)Oc3c2ccc2cccnc32)cc1OC (stereo not drawn)	-11.6%
CN(C)CCCN(C(=O)COc1ccccc1)c1nc2cc3c(cc2s1)OCO3.Cl	-65.4%
Cc1sc2nc(CSc3cccc(C(F)(F)F)c3)[nH]c(=O)c2c1C	9.95%
Cc1cc(NCCO)nc(-n2nc(C)cc2C)n1	-0.56%
CC(C)OCCCNC(=S)N1CCC(C(=O)c2ccc(Cl)cc2)CC1	-27.7%
O=C(Oc1ccc(F)cc1)c1ccc2c(=O)n3c(nc2c1)CCC3	-21.6%
Cc1c(C(C)(C)O)[nH]c2cc(C(F)(F)F)ccc12	34.1%
c1ccc(-c2noc(C3CCCCC3)n2)nc1	15.9%
COCCCn1c(C)nnc1SCc1ccc(C(C)(C)C)cc1	-1.53%
O=C(Cn1c(N2CCN(C/C=C/c3ccccc3)CC2)nc2ccccc21)c1ccccc1	-51.2%
C(=N\Nc1nc(Nc2ccccc2)nc(N2CCCCC2)n1)/c1ccco1	0.0871%
COC(=O)c1nn(-c2ccccc2)c(=O)cc1Oc1ccccc1	-1.94%
CC(CCc1ccccc1)NS(=O)(=O)c1ccc(Cl)c(C(=O)O)c1 (stereo not drawn)	11.7%
CCOC(=O)CNC(=O)CNC(=O)C(Cc1ccc(N(CCCl)CCCl)cc1)NC(C)=O (stereo not drawn)	17.5%
COc1ccc(OC)c(NC(=S)N2CCN(C(=O)C3CCCO3)CC2)c1 (stereo not drawn)	-1.34%
CC(C(=O)NC1CCCCC1)N1CCN(S(=O)(=O)c2cccs2)CC1 (stereo not drawn)	-9.2%
Cc1ccc(CNC(=O)CCc2c(C)nn(-c3ccc(N4CCOCC4)nn3)c2C)cc1	12.1%
Br.CCCCCCCCn1ccc(=N)cc1	-27%
COc1ccc(CNC(=O)CN(Cc2ccco2)C(=O)CNS(=O)(=O)c2ccc(C)cc2)cc1	-73%
Cc1ncc([N+](=O)[O-])n1CC(=O)Nc1ccc(F)c(Cl)c1	10.5%
